# Reference: PubChem BioAssay AID1347055 (National Center for Advancing Translational Sciences (NCATS), 2019)
# About 120 (0.22%) of roughly 54,000 compounds were called active. This list was built around the results that the source calls inconclusive (neither active nor inactive); the mix of calls is not that of the screen. The call rests on the fitted dose curve; in most records, active means well fitted inhibition curve with a large enough effect; inconclusive means small, poorly fitted or top-dose-only effect, or effect the other way; inactive means flat fitted curve, though single readings scatter. No potency is given beside an inconclusive call; the fits are too rough.
# Biological target: Fumarate hydratase, mitochondrial (Homo sapiens) (UniProt P07954)
# Assay: Identification of activators of human fumarate hydratase by quantitative high-throughput screening; further: the screen sought activators but most active calls are inhibition curves; nearly all actives have a fitted effect of over 45% in size
# Settings: FH coupled MDH/diaphorase resazurin fluorescence, 15 min; activity change, negative = inhibition: at 79.9 µM (top of the series)
# On the % scale 0 is the no-effect control and ±100 the full control effect; potency means the concentration at half of the fitted maximal effect; tags describe the fitted curve by direction and shape.
# Chain of UniProt P07954 (P07954 whole entry, looked up): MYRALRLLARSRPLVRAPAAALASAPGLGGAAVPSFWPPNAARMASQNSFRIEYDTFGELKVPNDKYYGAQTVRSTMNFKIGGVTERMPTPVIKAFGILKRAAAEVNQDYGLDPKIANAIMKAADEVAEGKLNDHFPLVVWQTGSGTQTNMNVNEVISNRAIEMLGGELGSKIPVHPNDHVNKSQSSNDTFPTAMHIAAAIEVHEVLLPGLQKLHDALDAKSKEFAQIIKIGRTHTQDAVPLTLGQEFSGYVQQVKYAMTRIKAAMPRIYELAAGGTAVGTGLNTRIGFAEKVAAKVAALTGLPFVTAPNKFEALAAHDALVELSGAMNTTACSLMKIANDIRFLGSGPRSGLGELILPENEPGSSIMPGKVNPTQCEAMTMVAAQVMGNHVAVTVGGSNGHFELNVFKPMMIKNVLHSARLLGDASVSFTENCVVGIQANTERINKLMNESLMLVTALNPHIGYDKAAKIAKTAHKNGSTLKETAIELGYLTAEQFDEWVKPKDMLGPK
Compound,Potency,"activity change, negative = inhibition"
COc1ccc(/C=C/c2nc(C#N)c(NCc3ccc(C)cc3)o2)cc1OC,"inconclusive [inhibitor, partial curve]",
Cc1cc(C)cc(C(=O)NCCc2csc(-c3ccc(C(F)(F)F)cc3)n2)c1,"inconclusive [inhibitor, single point]",
CCC(Sc1nnc2c(n1)[nH]c1ccccc12)C(=O)Nc1ccccc1OC (configuration not stated),"inconclusive [inhibitor, partial curve, poor fit]",
CCCCn1cc(S(=O)(=O)c2ccc(OC)cc2)c(=O)c2cc(F)c(N3CCOCC3)cc21,"inconclusive [inhibitor, partial curve, poor fit]",
CCn1cc(C(=O)N2CCN(c3cc(Cl)ccc3C)CC2)c(=O)c2cc(S(=O)(=O)N3CCCC3)ccc21,"inconclusive [inhibitor, partial curve, poor fit]",
CC(C)(C)C1CCc2c(sc(NC(=O)c3ccco3)c2C(=O)Nc2ccccc2Cl)C1 (configuration not stated),"inconclusive [inhibitor, single point]",
CCOC(=O)c1cc(-c2ccccc2)n(CCCC(=O)Nc2cccc(C)c2)c1C,"inconclusive [inhibitor, partial curve, poor fit]",
CC(C)(C)c1ccc(S(=O)(=O)c2cnc(SCC(=O)Nc3ccc4c(c3)OCCO4)[nH]c2=O)cc1,"inconclusive [inhibitor, partial curve]",
CCOC(=O)c1cccc(NC(=O)CSc2cc(=O)n(C)c3ccccc23)c1,"inconclusive [inhibitor, single point]",
O=C(Nc1ccc(C(F)(F)F)cc1)c1cc(S(=O)(=O)N2CCCc3ccccc32)ccc1F,"inconclusive [inhibitor, partial curve, poor fit]",
CCn1ccc2cc(S(=O)(=O)N3CCC(C(=O)NCC(C)c4ccccc4)CC3)ccc21 (configuration not stated),"inconclusive [inhibitor, partial curve, poor fit]",
CNC(=O)[C@H]1O[C@@H](n2cnc3c(NCc4ccc(I)cc4)nc(Cl)nc32)[C@H](O)[C@@H]1O,"inconclusive [inhibitor, partial curve, poor fit]",
CCN1CCC(N(Cc2ccc3c(c2)OCO3)C(=O)Nc2cccc(C)c2C)CC1,"inconclusive [inhibitor, single point]",
CCN(CC)C(=O)c1sc2c(c1C)c(=O)n(Cc1ccccc1)c(=O)n2Cc1cc(C)ccc1C,"inconclusive [inhibitor, single point]",
O=C(Nc1cccc(C(=O)OCc2cc(=O)n3c4c(sc3n2)CCCC4)c1)c1ccc(Cl)cc1,"inconclusive [inhibitor, partial curve]",
COc1ccc(-c2cc(OC(=O)c3ccccc3Cl)c3c(C)oc(C)c3c(=O)c2)cc1OC,"inconclusive [inhibitor, partial curve, poor fit]",
COc1ccc2c(CNC3CCCCCC3)c(C(=O)O)n(Cc3ccc(C)cc3)c2c1,"inconclusive [inhibitor, partial curve]",
CC(=O)N1CCCc2cc(S(=O)(=O)N3CCC(C(=O)Nc4c(C)cccc4C)CC3)ccc21,,inactive: 0.458%
CCOc1ccc(NC(=O)c2cn(C3CCCCC3)c(=O)c3c2c2ccccc2n3C)cc1,"inconclusive [inhibitor, single point]",

Compound,Potency,"activity change, negative = inhibition"
CCS(=O)(=O)c1ncc(Cl)c(C(=O)Nc2c(C(=O)Nc3cccc(C)c3)oc3ccccc23)n1,"inconclusive [inhibitor, single point]",
O=C(Nc1ccc(F)c(Cl)c1)N1CCC2(CC1)Oc1ccccc1C(=O)N2Cc1ccccc1F,"inconclusive [inhibitor, single point]",
COc1ccc(C(=O)NCc2ccc3c(c2)CCN3C(=O)c2ccc(C)cc2)cc1,"inconclusive [inhibitor, full curve, poor fit]",
CCCCCCCCCCCCCCCCC(C(=O)O)C(O)(CC(=O)O)C(=O)O (configuration not stated),"inconclusive [inhibitor, single point]",
COc1ccc(Cn2ccc3nc(C)c(C(=O)N4CCN(c5ccc(OC)cc5)CC4)cc3c2=O)cc1,"inconclusive [inhibitor, partial curve, poor fit]",
Cc1ccc(-c2nnc(Nc3ccc(F)cc3)c3ccccc23)cc1S(=O)(=O)N1CCN(C)CC1,"inconclusive [inhibitor, partial curve, poor fit]",
COc1ccc(-c2nc3scc(CCNC(=O)c4cccc(Br)c4)n3n2)cc1,,inactive: -13.2%
CCOC(=O)c1ccc(N2C(=O)c3[nH]nc(-c4ccc(OCC)cc4)c3C2c2cccs2)cc1 (configuration not stated),,inactive: -20.2%
CC(C)[C@@H](C)/C=C/[C@@H](C)[C@H]1CC[C@H]2C3=CC=C4C[C@@H](O)CC[C@]4(C)C3=CC[C@]12C,"inconclusive [inhibitor, single point]",
CC1Cc2ccccc2N1S(=O)(=O)c1nnc(NC(=O)c2cccc(F)c2)s1 (configuration not stated),,inactive: -17.4%
Cc1ccc(NC(=O)c2cc(S(=O)(=O)NC3CCCCC3)ccc2F)cc1Cl,"inconclusive [inhibitor, partial curve, poor fit]",
CCN(Cc1ccccc1)C(=O)c1cc2c(=O)[nH]c3ccc(C)cc3c2s1,"inconclusive [inhibitor, full curve]",
Cc1cccc(Cn2c(COc3ccc(Cl)cc3)nc3ccccc32)c1,"inconclusive [inhibitor, partial curve]",
CCc1nn(CC(=O)N(C)Cc2ccccc2)c(=O)c2cc3sccc3n12,"inconclusive [inhibitor, partial curve, poor fit]",
COc1cc(Cl)c(NS(=O)(=O)c2cc(-c3cc(C)no3)ccc2OC)c(OC)c1,,inactive: -27.9%
COC1(c2sc3c(N4CCOCC4)nc(-c4cnc(N)nc4)nc3c2C)COC1,,inactive: -4.91%
O=C1CC2(CCCC2)[C@H](O)C(=O)N1CCCCN1CCN(c2ncccn2)CC1,,inactive: -5.74%
COc1ccc(-c2nn(-c3ccccc3)cc2C2NC(=O)NC(C)=C2C(=O)OC(C)C)cc1Cl (configuration not stated),"inconclusive [inhibitor, partial curve, poor fit]",
COc1ccccc1OCc1nc(C#N)c(NCc2ccc(C)cc2)o1,"inconclusive [inhibitor, single point]",

Compound,Potency,"activity change, negative = inhibition"
Cc1cc(S(=O)(=O)Nc2ccc(C(=O)O)cc2)c(C)c(S(=O)(=O)c2ccc(Cl)cc2)c1,,inactive: -6.37%
CCc1nnc2c(Nc3ccc(N(CC)CC)cc3C)nc3ccccc3n12,"inconclusive [inhibitor, partial curve]",
COc1ccc(-c2nc(Cn3c(SCc4cccc(C(F)(F)F)c4)nc4cccnc43)c(C)o2)cc1OC,"inconclusive [inhibitor, single point]",
COc1ccc(C(=O)c2sc3nc(-c4ccc(F)cc4)ccc3c2N)cc1,,inactive: -3.16%
Cc1cc(OCC(O)CN2CCN(c3cccc(Cl)c3)CC2)ccc1Cl (configuration not stated),"inconclusive [inhibitor, single point]",
COc1ccc(-c2nn3c(=O)cc(CN4CCN(S(=O)(=O)c5ccc(C)cc5)CC4)nc3s2)cc1,"inconclusive [inhibitor, single point]",
COc1ccc(S(=O)(=O)Nc2cc3c(C(=O)OC(C)C)c(C)oc3c3ccccc23)cc1,"inconclusive [inhibitor, partial curve, poor fit]",
Cc1ccc(C)c(NC(=O)Cn2cc(C(=O)c3cccs3)c3ccccc32)c1,"inconclusive [inhibitor, partial curve]",
Cc1ccc(NS(=O)(=O)c2cc(-c3cnc(C4CC4)o3)ccc2C)cc1Cl,"inconclusive [inhibitor, partial curve, poor fit]",
CN(C1CCCCC1)S(=O)(=O)c1ccc2c(c1)c(=O)c(C(=O)NCCc1ccccc1)cn2C,"inconclusive [inhibitor, partial curve, poor fit]",
CCc1c(-c2ccccc2)c(-c2ccccc2)nn1-c1ccccc1-c1cccc(OCC(=O)O)c1,"inconclusive [inhibitor, partial curve, poor fit]",
COc1cc(-c2noc(-c3ccc(NCc4cccnc4)c([N+](=O)[O-])c3)n2)cc(OC)c1OC,,inconclusive: -31.5% [inhibitor]
O=S(=O)(Nc1ccc(Cl)cc1)c1ccc(NS(=O)(=O)c2ccc3c(c2)OCCO3)cc1,"inconclusive [inhibitor, partial curve]",
Cc1nc2nc(NCc3cccc(Br)c3)[nH]n2c(=O)c1Cc1ccccc1,,inactive: -4.21%
Cc1ccc(-c2nc(CS(=O)CC(=O)N3CCN(c4ccc(Cl)cc4)CC3)c(C)o2)cc1 (configuration not stated),"inconclusive [inhibitor, single point]",
Cc1cc(C)c(S(=O)(=O)NCC(c2cccs2)S(=O)(=O)c2ccccc2)c(C)c1 (configuration not stated),,inconclusive: -45.8% [inhibitor]
O=C(Nc1ccc(Cl)cc1)N1CCN(c2ccc3nnc(-c4ccc(F)cc4)n3n2)CC1,"inconclusive [inhibitor, partial curve, poor fit]",
CCNC(=O)Cc1ccc(NC(=O)N2CCCCc3ccccc32)cc1,"inconclusive [inhibitor, single point]",
O=C(c1ccc(OCCN2CCCCC2)cc1)c1c(-c2ccc(O)cc2)sc2cc(O)ccc12,"inconclusive [inhibitor, full curve, poor fit]",
